# Laboratory results published in the supplement of paper PMC8728848.
# Some of the results follow.
# How the values were obtained:
# Test in all cases: glycan array binding signal (z-score within array); higher = stronger binding
# Details in all cases: glycan notation: IUPAC condensed, linker removed
# [1] = molecular target: Fuc(a1-2)[GalNAc(a1-3)]Gal(b1-4)Glc
# In short: (§1)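 From the Consortium for Functional Glycomics database, 3228 arrays were curated, keeping only those whose protein sequence was available. Binding is given as a within-array Z-score averaged across arrays sharing a protein sequence and across linkers. Negative Z-scores can be read as non-binding.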
# [2] = molecular target: Fuc(a1-2)[GalNAc(a1-3)]Gal(b1-4)GlcNAc
# In short: as §1
# [3] = molecular target: Fuc(a1-2)[GalNAc(a1-3)]Gal(b1-4)GlcNAc(b1-2)Man(a1-3)[Fuc(a1-2)[GalNAc(a1-3)]Gal(b1-4)GlcNAc(b1-2)Man(a1-6)]Man(b1-4)GlcNAc(b1-4)GlcNAc
# In short: as §1
# [4] = molecular target: Fuc(a1-2)[GalNAc(a1-3)]Gal(b1-4)GlcNAc(b1-2)Man(a1-3)[Fuc(a1-2)[GalNAc(a1-3)]Gal(b1-4)GlcNAc(b1-2)Man(a1-6)]Man(b1-4)GlcNAc(b1-4)[Fuc(a1-6)]GlcNAc
# In short: as §1
# [5] = molecular target: Fuc(a1-2)[GalNAc(a1-3)]Gal(b1-4)GlcNAc(b1-3)Gal(b1-4)GlcNAc
# In short: as §1
# [6] = molecular target: Fuc(a1-2)[GalNAc(a1-3)]Gal(b1-4)GlcNAc(b1-3)Gal(b1-4)GlcNAc(b1-3)Gal(b1-4)GlcNAc
# In short: as §1
# [7] = molecular target: Fuc(a1-2)[GalNAc(a1-3)]Gal(b1-4)GlcNAc(b1-3)GalNAc
# In short: as §1
# [8] = molecular target: Fuc(a1-2)[GalNAc(a1-3)]Gal(b1-4)[Fuc(a1-3)]GlcNAc
# In short: as §1
# [9] = molecular target: Fuc(a1-2)[GalNAc(a1-3)]Gal(b1-4)[Fuc(a1-3)]GlcNAc(b1-3)GalNAc
# In short: as §1
# [10] = molecular target: Fuc(a1-2)[GalNAc(a1-4)]Gal(b1-4)GlcNAc
# In short: as §1
# [11] = molecular target: Fuc(a1-2)[GalNAc(b1-3)]Gal
# In short: as §1
# [12] = molecular target: Fuc(a1-3)GlcNAc
# In short: as §1
# [13] = molecular target: Fuc(a1-3)[Gal(b1-4)]Glc6S
# In short: as §1
# [14] = molecular target: Fuc(a1-3)[Gal(b1-4)]GlcNAc
# In short: as §1
# [15] = molecular target: Fuc(a1-3)[Gal(b1-4)]GlcNAc(b1-2)Man(a1-3)[Fuc(a1-3)[Gal(b1-4)]GlcNAc(b1-2)Man(a1-6)]Man(b1-4)GlcNAc(b1-4)GlcNAc
# In short: as §1
# [16] = molecular target: Fuc(a1-3)[Gal(b1-4)]GlcNAc(b1-2)Man(a1-3)[Fuc(a1-3)[Gal(b1-4)]GlcNAc(b1-2)Man(a1-6)]Man(b1-4)GlcNAc(b1-4)[Fuc(a1-6)]GlcNAc
# In short: as §1
# [17] = molecular target: Fuc(a1-3)[Gal(b1-4)]GlcNAc(b1-3)Gal(b1-3)[Fuc(a1-4)]GlcNAc
# In short: as §1
# [18] = molecular target: Fuc(a1-3)[Gal(b1-4)]GlcNAc(b1-3)GalNAc
# In short: as §1
# [19] = molecular target: Fuc(a1-3)[Gal(b1-4)]GlcNAc(b1-4)Gal(b1-4)[Fuc(a1-3)]GlcNAc
# In short: as §1
# [20] = molecular target: Fuc(a1-3)[Gal(b1-4)]GlcNAc(b1-4)Gal(b1-4)[Fuc(a1-3)]GlcNAc(b1-4)Gal(b1-4)[Fuc(a1-3)]GlcNAc
# In short: as §1
# [21] = molecular target: Fuc(a1-3)[Gal(b1-4)]GlcNAc(b1-6)GalNAc
# In short: as §1
# [22] = molecular target: Fuc(a1-3)[Gal(b1-4)]GlcNAc(b1-6)[Gal(b1-3)GlcNAc(b1-3)]Gal(b1-4)Glc
# In short: as §1
# [23] = molecular target: Fuc(a1-3)[Gal(b1-4)]GlcNAc(b1-6)[Neu5Ac(a2-3)Gal(b1-3)]GalNAc
# In short: as §1
# [24] = molecular target: Fuc(a1-3)[Gal(b1-4)]GlcNAc6S
# In short: as §1
# [25] = molecular target: Fuc(a1-3)[Gal3S(b1-4)]GlcNAc
# In short: as §1
# [26] = molecular target: Fuc(a1-3)[Gal3S(b1-4)]GlcNAc6S
# In short: as §1
# [27] = molecular target: Fuc(a1-3)[GalNAc(b1-4)]GlcNAc
# In short: as §1
# [28] = molecular target: Fuc(a1-4)GlcNAc
# In short: as §1
# [29] = molecular target: Fuc(b1-3)GlcNAc
# In short: as §1
# [30] = molecular target: Gal(a1-2)Gal
# In short: as §1
binder,measurement,setting,value
"RS2L (Ralstonia solanacearum), B5RXL5_RALSO (protein) MAQQGVFTLPANTSFGVTAFANAANTQTIQVLVDNVVKATFTGSGTSDKLLGSQVLNSGSGAIKIQVSVNGKPSDLVSNQTILANKLNFAMVGSEDGTDNDYNDGIAVLNWPLG",glycan array binding signal (z-score),[1],-0.244
same,glycan array binding signal (z-score),[2],-0.25
same,glycan array binding signal (z-score),[3],-0.182
same,glycan array binding signal (z-score),[4],0.496
same,glycan array binding signal (z-score),[5],-0.253
same,glycan array binding signal (z-score),[6],-0.24
same,glycan array binding signal (z-score),[7],-0.245
same,glycan array binding signal (z-score),[8],-0.235
same,glycan array binding signal (z-score),[9],-0.233
same,glycan array binding signal (z-score),[10],-0.243
same,glycan array binding signal (z-score),[11],-0.238
same,glycan array binding signal (z-score),[12],-0.173
same,glycan array binding signal (z-score),[13],-0.237
same,glycan array binding signal (z-score),[14],-0.224
same,glycan array binding signal (z-score),[15],-0.169
same,glycan array binding signal (z-score),[16],-0.246
same,glycan array binding signal (z-score),[17],-0.174
same,glycan array binding signal (z-score),[18],-0.24
same,glycan array binding signal (z-score),[19],-0.039
same,glycan array binding signal (z-score),[20],-0.164
same,glycan array binding signal (z-score),[21],-0.24
same,glycan array binding signal (z-score),[22],-0.217
same,glycan array binding signal (z-score),[23],-0.234
same,glycan array binding signal (z-score),[24],-0.233
same,glycan array binding signal (z-score),[25],-0.237
same,glycan array binding signal (z-score),[26],-0.236
same,glycan array binding signal (z-score),[27],-0.24
same,glycan array binding signal (z-score),[28],-0.032
same,glycan array binding signal (z-score),[29],0.079
same,glycan array binding signal (z-score),[30],-0.238
